Reference: publication PMC7819943, “Rice protein-binding microarrays: a tool to detect cis-acting elements near promoter regions in rice”
The other results are listed elsewhere or left out.

Each sequence was assayed against T1, OsWOX13 (Oryza sativa, UniProt Q5QMM3 1-267) (assay: protein-binding microarray (RPBM); PBS, 2% BSA, 51.3 ng/ul salmon testes DNA, 50 uM zinc acetate, 200 nM TF, 25 C, 1 h; high values mean tight binding). Settings: protein: recombinant; tags: N-terminal polyhistidine and DsRed monomer fusion (pET32a); label: CyDye5-dUTP incorporated in the synthesized complementary strand; 3' TTTTT single-stranded linker to array surface; dsDNA, one strand shown.
T1 sequence: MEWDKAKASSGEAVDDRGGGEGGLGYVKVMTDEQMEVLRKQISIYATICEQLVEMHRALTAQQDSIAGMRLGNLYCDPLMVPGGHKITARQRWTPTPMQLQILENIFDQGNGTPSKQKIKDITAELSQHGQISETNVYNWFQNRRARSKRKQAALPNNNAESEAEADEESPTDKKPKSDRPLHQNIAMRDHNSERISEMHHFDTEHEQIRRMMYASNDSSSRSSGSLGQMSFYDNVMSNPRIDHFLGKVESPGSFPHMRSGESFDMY
Outline: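 Per-feature fluorescence intensity (arbitrary units), read on an Axon 4000B scanner, is the binding signal. Transcription factors carrying an N-terminal polyhistidine tag and DsRed fusion were expressed in E. coli BL21-CodonPlus and purified on Ni–NTA. A custom Agilent array, made double-stranded by primer extension with Cy5-dUTP and blocked with 2% BSA, was incubated with 200 nM protein in PBS, 2% BSA, salmon testes DNA and 50 µM zinc acetate at 25 °C for 1 h and then washed.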
For “AAGTACTGATATCTGTGACATAATTTGAATTGGTATCTCACGGAGTCACCTAGTGCAG”, the binding signal was 5320 fluorescence intensity (a.u.). For “TTTTAATTAGAATCTAATTAATTGTGGGTTGTTTCAGCTTCGGAGTCACCTAGTGCAG”, the binding signal was 40500 fluorescence intensity (a.u.). For “TGCACTAGTGACAGATTAATTAAGCTCAAAAGATTTGTCACGGAGTCACCTAGTGCAG”, the binding signal was 10800 fluorescence intensity (a.u.). In the case of “GAAAATTTGATGAAAAGTCACTCTCAATCGTGGGCTTCAACGGAGTCACCTAGTGCAG”, the binding signal was 4510 fluorescence intensity (a.u.). In the case of “GACAGTTAATCAAGATCATTTACTCTCCCCTTCCCATTTTCGGAGTCACCTAGTGCAG”, the binding signal was 4540 fluorescence intensity (a.u.). In the case of “AAAATTTTAAATGTGGCTATGATAGGCTAAATAGAAAACACGGAGTCACCTAGTGCAG”, the binding signal was 6150 fluorescence intensity (a.u.). In the case of “TATTCTCACTAATTTGTATAACTAACCTCATGAAACATGTCGGAGTCACCTAGTGCAG”, the binding signal was 4840 fluorescence intensity (a.u.). For “ACAAACTGACACCGGAGAAATTTGATCTACTCAAGGGCCACGGAGTCACCTAGTGCAG”, the binding signal was 7800 fluorescence intensity (a.u.). With “CCCAATCACCATTTTCACCCCACTTTGTCACCTAGCAAGGCGGAGTCACCTAGTGCAG” the binding signal was 5650 fluorescence intensity (a.u.). With “TTTCCCCATCTATCCCTAGATTGGCATAGTGTCTTCTAATCGGAGTCACCTAGTGCAG” the binding signal was 6980 fluorescence intensity (a.u.). “TCTAGCTAATCAGTATAGACAGTAGTGAGAACAGTTCAGACGGAGTCACCTAGTGCAG” was tested, and the binding signal was 3730 fluorescence intensity (a.u.). With “ATTAATTAATTATTAACTCACCCATTATTCCGCTCGCTAGCGGAGTCACCTAGTGCAG” the binding signal was 47800 fluorescence intensity (a.u.). For “ATTCCAATTCCTTGCTAATAGATACACTGACAAAGTGGCTCGGAGTCACCTAGTGCAG”, the binding signal was 5010 fluorescence intensity (a.u.). In the case of “GAATTGGCTATTAGATTGACTATAGATGAATTGAAGTTAGCGGAGTCACCTAGTGCAG”, the binding signal was 15800 fluorescence intensity (a.u.). In the case of “TTGCTAATGATGAATTAATTAGGCTTAATAAATTCGTCTCCGGAGTCACCTAGTGCAG”, the binding signal was 28300 fluorescence intensity (a.u.). In the case of “ATTTTCTTGTGATTTGATTCATCATCAAATGTTCATTAAGCGGAGTCACCTAGTGCAG”, the binding signal was 5680 fluorescence intensity (a.u.). In the case of “ATACTAATTTATAGTTGATGATAACATAATACGAAATGAACGGAGTCACCTAGTGCAG”, the binding signal was 21400 fluorescence intensity (a.u.). “TTGGTGTAATTGACATGCGGGCCCACAATTTTATTATTTTCGGAGTCACCTAGTGCAG” was tested, and the binding signal was 23800 fluorescence intensity (a.u.). In the case of “GTGACAGACTGACAGTGTGAGTGTCAAGAAATGACTGTGACGGAGTCACCTAGTGCAG”, the binding signal was 15600 fluorescence intensity (a.u.). “ATTTTAAACTAATATTTGACTGCATCATGCTGGTTTTAATCGGAGTCACCTAGTGCAG” was tested, and the binding signal was 5890 fluorescence intensity (a.u.). “GCTTTCCAACACAAATTAGATTTGTTTGACGACATTTATCCGGAGTCACCTAGTGCAG” was tested, and the binding signal was 8660 fluorescence intensity (a.u.). For “TAATATTTTATTTAATTATTTAAGTCACATGCAAATGATGCGGAGTCACCTAGTGCAG”, the binding signal was 5200 fluorescence intensity (a.u.). For “TCAAATCAAATTTGAATCAAAATCTAGCCAAGATTTGTATCGGAGTCACCTAGTGCAG”, the binding signal was 14600 fluorescence intensity (a.u.).
